In article PMC4336329 (PLoS ONE, 2015):
In all, about 310,000 compounds went through this assay and about 2,200 (0.71%) showed an effect of 50% or more. Effects have a minus sign here. The list shows a part of the results.

Each compound was assayed against human ether-à-go-go-related gene (hERG) potassium channel (human, UniProt Q12809) (assay: primary screen, population patch clamp on CHO cells stably expressing hERG).
Sequence of human ether-à-go-go-related gene (hERG) potassium channel (Q12809 whole entry, looked up): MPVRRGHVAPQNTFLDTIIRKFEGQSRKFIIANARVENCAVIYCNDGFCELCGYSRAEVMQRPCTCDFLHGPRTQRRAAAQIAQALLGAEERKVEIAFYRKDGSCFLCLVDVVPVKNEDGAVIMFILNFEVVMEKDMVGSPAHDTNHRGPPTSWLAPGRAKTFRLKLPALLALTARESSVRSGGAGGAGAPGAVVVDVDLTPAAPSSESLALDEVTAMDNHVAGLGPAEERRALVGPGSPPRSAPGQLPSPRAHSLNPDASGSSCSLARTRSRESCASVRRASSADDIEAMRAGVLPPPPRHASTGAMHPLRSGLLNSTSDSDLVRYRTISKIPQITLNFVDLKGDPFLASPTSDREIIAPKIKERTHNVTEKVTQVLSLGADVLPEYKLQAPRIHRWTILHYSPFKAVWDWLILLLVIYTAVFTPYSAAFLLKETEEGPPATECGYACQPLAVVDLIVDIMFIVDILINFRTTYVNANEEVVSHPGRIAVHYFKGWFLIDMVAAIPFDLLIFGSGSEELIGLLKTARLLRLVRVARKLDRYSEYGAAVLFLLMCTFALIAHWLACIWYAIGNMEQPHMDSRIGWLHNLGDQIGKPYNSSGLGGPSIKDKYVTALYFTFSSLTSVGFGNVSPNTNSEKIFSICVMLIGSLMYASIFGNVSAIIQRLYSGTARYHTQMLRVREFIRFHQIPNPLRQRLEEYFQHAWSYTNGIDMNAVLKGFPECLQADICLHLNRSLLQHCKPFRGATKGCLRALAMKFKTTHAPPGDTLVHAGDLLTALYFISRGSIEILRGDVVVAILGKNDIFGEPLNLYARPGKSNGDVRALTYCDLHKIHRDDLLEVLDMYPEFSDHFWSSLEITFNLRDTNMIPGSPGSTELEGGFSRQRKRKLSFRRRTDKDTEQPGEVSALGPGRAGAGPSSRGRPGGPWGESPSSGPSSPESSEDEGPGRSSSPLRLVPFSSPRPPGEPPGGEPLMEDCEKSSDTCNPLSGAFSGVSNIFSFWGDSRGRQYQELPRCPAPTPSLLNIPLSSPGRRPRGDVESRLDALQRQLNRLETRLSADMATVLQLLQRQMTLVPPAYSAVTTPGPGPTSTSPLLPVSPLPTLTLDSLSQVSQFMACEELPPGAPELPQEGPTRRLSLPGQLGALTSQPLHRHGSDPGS

Question: CCc1nnc(NC(=O)CC(C)c2ccccc2)s1 (stereo not drawn) was tested. Which “hERG current change (%, negative = inhibition) at 1uM” value did it give?
Answer: 13.6%

Question: For CC(C)(C)[C@H]1CCC(=O)N([C@H](CSc2ccccc2)Cc2ccccc2)CC1, which “hERG current change (%, negative = inhibition) at 1uM” value is on record?
Answer: 4.35%

Question: How did the “hERG current change (%, negative = inhibition) at 1uM” value turn out when CCOCCCNC(=O)c1ccc(NC(=O)C2CCCO2)cc1 (stereo not drawn) was run?
Answer: 6.45%

Question: Cc1[nH]c2ccc(C(=O)N3CCCC3)cc2c1C was tested. Which “hERG current change (%, negative = inhibition) at 1uM” value did it give?
Answer: 6.09%

Question: For O=c1[nH]c(Cc2ccccc2)nc2ccccc12, which “hERG current change (%, negative = inhibition) at 1uM” value is on record?
Answer: 5.95%

Question: With C=CCOC(=O)COc1ccc2c(C)c(C)c(=O)oc2c1 as the compound, how does the “hERG current change (%, negative = inhibition) at 1uM” value read?
Answer: 5.01%

Question: Which “hERG current change (%, negative = inhibition) at 1uM” value does the source give for CCOC(=O)N1CCN(c2c(NCc3cccs3)c(=O)c2=O)CC1 here?
Answer: 15.5%

Question: Which “hERG current change (%, negative = inhibition) at 1uM” value does the source give for N/C(=N\O)c1ccccc1N1CCCCC1 here?
Answer: -2.58%

Question: How did the “hERG current change (%, negative = inhibition) at 1uM” value turn out when Cn1c(SCC(=O)C(C)(C)C)nnc1-c1ccc(F)cc1 was run?
Answer: 10.4%

Question: With O=C(CCCN1C(=O)/C(=C\c2ccco2)SC1=S)Nc1ccc(O)cc1C(=O)O as the compound, how does the “hERG current change (%, negative = inhibition) at 1uM” value read?
Answer: 16.7%

Question: C=CCN1C=C2C(=O)C(C)(OC(=O)c3cccs3)C(=O)C=C2C=C1CCCC(=O)OC (stereo not drawn) was tested. Which “hERG current change (%, negative = inhibition) at 1uM” value did it give?
Answer: 14%

Question: For COc1ccccc1S(=O)(=O)Cc1ccc(C(=O)NCc2ccc(C)cc2)o1, which “hERG current change (%, negative = inhibition) at 1uM” value is on record?
Answer: 1.61%

Question: With Cn1c(=O)c2c(nc(SCCN3CCOCC3)n2Cc2cccc3ccccc23)n(C)c1=O as the compound, how does the “hERG current change (%, negative = inhibition) at 1uM” value read?
Answer: 1.03%

Question: How did the “hERG current change (%, negative = inhibition) at 1uM” value turn out when Cn1nc(CC(=O)NC2CCCCCCCCCCC2)c2ccccc2c1=O was run?
Answer: 6.92%

Question: With CC(=O)OC1=CC[C@H]2[C@@H]3CC[C@H]4C[C@H](OC(C)=O)[C@@H](OC(C)=O)C[C@]4(C)[C@H]3CC[C@]12C as the compound, how does the “hERG current change (%, negative = inhibition) at 1uM” value read?
Answer: 10.7%

Question: Which “hERG current change (%, negative = inhibition) at 1uM” value does the source give for Cl.O=C(NC12CC3CC(CC(C3)C1)C2)OC1CN2CCC1CC2 (stereo not drawn) here?
Answer: 5.59%

Question: For COC(=O)C(Cc1ccccc1)NC(=O)c1cc(=O)[nH]c2ccccc12 (stereo not drawn), which “hERG current change (%, negative = inhibition) at 1uM” value is on record?
Answer: 5.59%

Question: For CC(C)Oc1ccc(C(=O)NCC(=O)OCC(=O)N(C)Cc2cccs2)cc1, which “hERG current change (%, negative = inhibition) at 1uM” value is on record?
Answer: -0.219%

Question: Which “hERG current change (%, negative = inhibition) at 1uM” value does the source give for CC[C@@]12C(=O)N(c3ccc(OC)cc3)C(=O)N1[C@H](c1ccc(Cl)cc1)[C@@H]1C(=O)N(C3CCCCC3)C(=O)[C@@H]12 here?
Answer: 4.01%

Question: How did the “hERG current change (%, negative = inhibition) at 1uM” value turn out when O=C(NC1CCCN(c2ccc(C(F)(F)F)cn2)C1)c1ccncc1 (stereo not drawn) was run?
Answer: -51.8%

Question: Which “hERG current change (%, negative = inhibition) at 1uM” value does the source give for Cc1cnc(CNC(=O)c2ccc3oc(Cc4ccccc4)nc3c2)[nH]1 here?
Answer: 13.4%

Question: For COC(=O)CN(c1cccc(C(C)=O)c1)S(C)(=O)=O, which “hERG current change (%, negative = inhibition) at 1uM” value is on record?
Answer: 7.91%

Question: For O=C(N/N=C/c1cc(Br)cc(Br)c1O)c1cccc(N2CCCC2=O)c1, which “hERG current change (%, negative = inhibition) at 1uM” value is on record?
Answer: 10.2%

Question: How did the “hERG current change (%, negative = inhibition) at 1uM” value turn out when Cc1cccn2c(=O)c3cc(C(=O)NC4CCCCC4)c(=N)n(Cc4ccc(F)cc4)c3nc12 was run?
Answer: -16%
